# Experimental data as given in the RNAGym collection of RNA variant scans (doi:10.7554/elife.90254).
# The source gives no read counts; variants with many changes may rest on few reads.
# B1: LINE1-full (parent)
# chain: UACGUAGGUGGUUUUCCCCUGAUAGUGCUAAGGGGGCCUGGAAGUUUGGACUGGGCAGAGCUCAACACAGCGUGGCAAAGUGGCUGUGGCUAGACUGCCUCUCUGGAUUCCUCGUCACUCAGCAGGGCAUCUCUGAGAGAAAUGCC
# Variants of: B1
# Experiment: self-cleavage, relative activity (ratio to wild type); higher = more cleavage; in vitro, sequencing; the parent is a self-cleaving ribozyme
row,Variant,self-cleavage
1,G36C U52A U62C U108C,0.03
2,C18U G33U U134C,0.79
3,C37A A78G A79G,0.4
4,U14C U73A G106A,1.6
5,U15C C128U U130C U143C,1.07
6,U20C A69U G122A,0.1
7,U15C A57U A94U U104C,0.12
8,U15A U29C A59G U62A A92G C111U,0
9,A2G U47A A117G,1.41
10,A59G A67G A117U A140U,0.27
11,U39A A43G U112C C118U A138G A140U,0.15
12,U12C G54A U119A A141G,0.96
13,A22U A64G U100A,0.23
14,A57G U109C C113U,0.45
15,A22G G49U U112C U115C,0.38
16,A31U A69G A94U A129G,0
17,A57G U87C U104A A138G,0.2
18,U5C G34A A50U U100C U119C,0.97
19,U14C U62C A65U,0.13
20,U20C A43G A64U,0.9
21,A6U A57G G88U,0.12

row,Variant,self-cleavage
1,A94G U112G A138G,0
2,A124U U143G C145U,0.88
3,U5A U47A A50G,0.46
4,A65G U104A U130C,0
5,A30U G40A U96C G114C,0.04
6,A67G A69U U96C,0.05
7,U13C A59G U119A A140G,0.11
8,A67U C71U U112C A136U,0.03
9,U9A G86U A124U U134C,0.13
10,U20A A57G U104A,0.36
11,U15C A67G U87C A129G A141G,0
12,U87A U91C A117U,0
13,A2C C113A A140G,0.85
14,U26A U73C A77U A94G,0.53
15,G74U U115C A142U,2.4
16,U9C U115A U119A,1.65
17,U14C U47C U62A U108C A140U,0.49
18,U14C A24G A138G A141G,0
19,U87C U115C A138G,0
20,U26G A31G G53A A136U A140G,2.04
21,U73A U85C U102C U115C G127C,0

row,Variant,self-cleavage
1,A79U C90A A107G U119C,0.04
2,A42U A77G A117G,0
3,U9G A42U U46C U62C G86A C146U,0.06
4,A67G C116U A117G,0
5,U20C A94G U100C U119A G122A,0.66
6,C19U C76U C90A U108C,0.02
7,U9C U14C U23A A78G U132C G135A,0.54
8,U39A A50G U130C,0.68
9,G8A A42G U102C U115A,1.15
10,U9C U39C A50G,0.55
11,U15C A22C A142G,1.37
12,U23C A79G A121G U134C,1.2
13,A30G A129G U130C,0
14,U39C A94G U115C,0
15,U12G A43U A124U,1.16
16,A42G A43U A117G,1.37
17,A2G A30U A142G,0.52
18,U23C U73C U96C U104A U143A,0
19,U12A A67U U85C C123U,0.03
20,U47C C56A A140G,0.07
21,C19U A121G A142G,0.97

row,Variant,self-cleavage
1,A2G U62A U73A U132C,0.18
2,A6G A50G U112C A129U A138G,0
3,G8U U14C U45C U115C A136G,2.3
4,A64G G72A C99A U130C,0.07
5,U62A U119A A142G,0.05
6,U1A U12A G36C,1.37
7,U9C G25A A43G A57U U100C,0.43
8,U62C C66U A124U A141G,0.01
9,C18A A43C A65G A140U A142G,0
10,U14C A30U U81C U115C,0
11,A67U U85G A141G,0.05
12,U81A U87A U108C U112C,0.32
13,C16A U96G U102A C110A U112C,0
14,C51A A57G U73G A138G,1.46
15,G53A A64G U109C,0.19
16,U14A U62C G72A U73C,0.04
17,U29C A77G U81C U108A,1.31
18,U1C A50U U73C A117U,1.61
19,U96A A117G G137A,0.21
20,U13C A67G C113U C145G,0.8
21,A79G A92U A138G,0.32
